These are yes or no findings as the source states them, for the method shown. For part of these data: Binding seen in cells or lysates may run through a third protein. For part of these data: Sequences can lack the tags named with a protein. Some entries that bind do so weakly or less than the wild type. One block for each molecule: values may come before it.
What was measured:
NPHP4 = molecular target: T1, NPHP4 (UniProt O75161); assay: two-hybrid; directed yeast two-hybrid by mating: AH109 with pGBKT7 (BD, bait) fusions x Y187 with pACT2 (AD, prey) fusions; growth on -leu,-trp,-his plates scored as strong, medium or weak; each mating repeated at least three times
T1 sequence: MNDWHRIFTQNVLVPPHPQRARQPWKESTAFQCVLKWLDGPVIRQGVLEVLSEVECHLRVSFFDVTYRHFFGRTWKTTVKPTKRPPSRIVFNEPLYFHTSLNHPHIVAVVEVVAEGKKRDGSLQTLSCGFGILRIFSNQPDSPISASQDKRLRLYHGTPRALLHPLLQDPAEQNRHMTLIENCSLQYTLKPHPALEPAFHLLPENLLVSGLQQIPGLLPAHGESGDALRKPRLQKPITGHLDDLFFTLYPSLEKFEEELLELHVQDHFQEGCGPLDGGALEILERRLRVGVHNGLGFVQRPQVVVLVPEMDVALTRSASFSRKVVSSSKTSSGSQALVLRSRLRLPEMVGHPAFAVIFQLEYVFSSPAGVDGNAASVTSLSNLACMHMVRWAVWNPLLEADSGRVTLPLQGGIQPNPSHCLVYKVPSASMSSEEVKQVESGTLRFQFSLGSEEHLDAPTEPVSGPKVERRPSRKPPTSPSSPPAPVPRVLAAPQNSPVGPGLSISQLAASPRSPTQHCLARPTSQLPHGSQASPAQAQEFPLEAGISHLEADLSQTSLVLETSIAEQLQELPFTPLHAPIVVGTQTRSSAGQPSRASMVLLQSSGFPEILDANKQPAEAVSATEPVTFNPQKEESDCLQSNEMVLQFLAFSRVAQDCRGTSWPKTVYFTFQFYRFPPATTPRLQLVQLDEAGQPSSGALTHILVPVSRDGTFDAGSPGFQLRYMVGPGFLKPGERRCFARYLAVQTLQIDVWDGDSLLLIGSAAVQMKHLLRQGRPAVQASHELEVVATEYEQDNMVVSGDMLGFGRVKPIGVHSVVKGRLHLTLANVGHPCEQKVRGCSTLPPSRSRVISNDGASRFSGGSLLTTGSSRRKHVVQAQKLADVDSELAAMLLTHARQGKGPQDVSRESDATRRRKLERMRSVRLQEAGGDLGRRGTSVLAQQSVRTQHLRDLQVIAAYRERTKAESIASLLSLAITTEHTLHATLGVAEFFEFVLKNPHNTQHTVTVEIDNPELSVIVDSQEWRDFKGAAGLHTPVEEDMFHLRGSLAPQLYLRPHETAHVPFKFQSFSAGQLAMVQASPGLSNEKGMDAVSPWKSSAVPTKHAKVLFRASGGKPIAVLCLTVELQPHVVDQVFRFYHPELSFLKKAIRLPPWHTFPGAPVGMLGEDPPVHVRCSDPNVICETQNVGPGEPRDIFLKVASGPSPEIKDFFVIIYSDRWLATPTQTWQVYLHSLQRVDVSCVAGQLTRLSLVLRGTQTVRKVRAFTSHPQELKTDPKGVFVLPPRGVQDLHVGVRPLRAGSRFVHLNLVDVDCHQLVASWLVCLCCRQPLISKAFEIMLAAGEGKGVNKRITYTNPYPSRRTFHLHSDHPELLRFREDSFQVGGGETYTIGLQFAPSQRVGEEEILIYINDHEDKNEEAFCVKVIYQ

The chains behind the UniProt entries cited, without tags or fusion partners.
UniProt Q92621: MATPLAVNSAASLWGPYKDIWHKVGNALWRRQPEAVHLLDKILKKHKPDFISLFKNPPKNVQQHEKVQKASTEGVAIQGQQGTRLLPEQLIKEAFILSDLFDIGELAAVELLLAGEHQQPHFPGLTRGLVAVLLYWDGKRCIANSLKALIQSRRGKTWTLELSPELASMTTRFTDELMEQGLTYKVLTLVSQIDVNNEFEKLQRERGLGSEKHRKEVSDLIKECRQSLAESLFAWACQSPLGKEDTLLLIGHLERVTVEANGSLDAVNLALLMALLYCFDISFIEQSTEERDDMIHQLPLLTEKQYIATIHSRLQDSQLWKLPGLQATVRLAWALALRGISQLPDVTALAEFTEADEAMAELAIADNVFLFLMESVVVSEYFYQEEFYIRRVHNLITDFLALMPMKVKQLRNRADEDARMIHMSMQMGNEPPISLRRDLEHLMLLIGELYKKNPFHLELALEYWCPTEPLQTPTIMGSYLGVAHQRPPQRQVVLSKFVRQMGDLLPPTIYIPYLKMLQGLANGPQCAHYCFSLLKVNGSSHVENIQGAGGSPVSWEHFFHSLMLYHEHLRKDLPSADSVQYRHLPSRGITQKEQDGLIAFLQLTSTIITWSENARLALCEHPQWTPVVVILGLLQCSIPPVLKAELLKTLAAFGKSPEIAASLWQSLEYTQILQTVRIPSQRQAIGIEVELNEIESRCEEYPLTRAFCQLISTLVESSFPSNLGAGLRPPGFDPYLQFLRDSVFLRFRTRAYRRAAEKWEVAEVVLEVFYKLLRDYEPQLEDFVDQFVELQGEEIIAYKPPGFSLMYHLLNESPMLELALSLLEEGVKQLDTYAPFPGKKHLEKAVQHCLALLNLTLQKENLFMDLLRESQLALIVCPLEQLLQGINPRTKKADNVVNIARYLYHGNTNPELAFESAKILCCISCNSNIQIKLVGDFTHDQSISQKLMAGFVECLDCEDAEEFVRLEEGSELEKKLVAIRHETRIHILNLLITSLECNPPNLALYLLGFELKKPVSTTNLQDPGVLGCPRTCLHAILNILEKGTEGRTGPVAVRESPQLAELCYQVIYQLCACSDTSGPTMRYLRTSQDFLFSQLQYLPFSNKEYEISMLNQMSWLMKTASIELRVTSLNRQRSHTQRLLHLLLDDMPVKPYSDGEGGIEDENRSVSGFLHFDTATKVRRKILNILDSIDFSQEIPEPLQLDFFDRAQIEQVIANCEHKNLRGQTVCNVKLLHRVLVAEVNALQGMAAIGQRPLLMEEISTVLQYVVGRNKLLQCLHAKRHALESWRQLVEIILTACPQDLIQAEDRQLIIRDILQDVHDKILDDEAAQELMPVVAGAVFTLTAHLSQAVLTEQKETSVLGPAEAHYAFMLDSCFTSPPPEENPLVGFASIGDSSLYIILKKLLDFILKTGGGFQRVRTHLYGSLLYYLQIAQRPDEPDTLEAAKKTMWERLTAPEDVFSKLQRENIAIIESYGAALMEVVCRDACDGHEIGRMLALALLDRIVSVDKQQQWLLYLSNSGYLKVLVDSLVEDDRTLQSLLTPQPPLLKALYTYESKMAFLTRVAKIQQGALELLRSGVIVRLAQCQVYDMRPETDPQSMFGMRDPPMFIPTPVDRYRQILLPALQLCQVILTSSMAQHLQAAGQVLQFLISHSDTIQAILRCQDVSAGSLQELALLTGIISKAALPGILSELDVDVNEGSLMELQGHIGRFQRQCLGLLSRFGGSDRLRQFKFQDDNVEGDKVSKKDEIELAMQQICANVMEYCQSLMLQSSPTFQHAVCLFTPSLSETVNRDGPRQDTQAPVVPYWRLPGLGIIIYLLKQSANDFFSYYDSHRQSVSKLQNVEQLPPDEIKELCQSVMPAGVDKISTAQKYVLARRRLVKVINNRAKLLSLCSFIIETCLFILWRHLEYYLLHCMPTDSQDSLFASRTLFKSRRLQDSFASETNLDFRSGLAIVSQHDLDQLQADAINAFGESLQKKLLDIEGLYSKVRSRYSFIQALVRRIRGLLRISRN

NPHP2 (inversin) = molecular target: T2, NPHP2 (inversin) (UniProt Q9Y283); assay: as above
T2 sequence: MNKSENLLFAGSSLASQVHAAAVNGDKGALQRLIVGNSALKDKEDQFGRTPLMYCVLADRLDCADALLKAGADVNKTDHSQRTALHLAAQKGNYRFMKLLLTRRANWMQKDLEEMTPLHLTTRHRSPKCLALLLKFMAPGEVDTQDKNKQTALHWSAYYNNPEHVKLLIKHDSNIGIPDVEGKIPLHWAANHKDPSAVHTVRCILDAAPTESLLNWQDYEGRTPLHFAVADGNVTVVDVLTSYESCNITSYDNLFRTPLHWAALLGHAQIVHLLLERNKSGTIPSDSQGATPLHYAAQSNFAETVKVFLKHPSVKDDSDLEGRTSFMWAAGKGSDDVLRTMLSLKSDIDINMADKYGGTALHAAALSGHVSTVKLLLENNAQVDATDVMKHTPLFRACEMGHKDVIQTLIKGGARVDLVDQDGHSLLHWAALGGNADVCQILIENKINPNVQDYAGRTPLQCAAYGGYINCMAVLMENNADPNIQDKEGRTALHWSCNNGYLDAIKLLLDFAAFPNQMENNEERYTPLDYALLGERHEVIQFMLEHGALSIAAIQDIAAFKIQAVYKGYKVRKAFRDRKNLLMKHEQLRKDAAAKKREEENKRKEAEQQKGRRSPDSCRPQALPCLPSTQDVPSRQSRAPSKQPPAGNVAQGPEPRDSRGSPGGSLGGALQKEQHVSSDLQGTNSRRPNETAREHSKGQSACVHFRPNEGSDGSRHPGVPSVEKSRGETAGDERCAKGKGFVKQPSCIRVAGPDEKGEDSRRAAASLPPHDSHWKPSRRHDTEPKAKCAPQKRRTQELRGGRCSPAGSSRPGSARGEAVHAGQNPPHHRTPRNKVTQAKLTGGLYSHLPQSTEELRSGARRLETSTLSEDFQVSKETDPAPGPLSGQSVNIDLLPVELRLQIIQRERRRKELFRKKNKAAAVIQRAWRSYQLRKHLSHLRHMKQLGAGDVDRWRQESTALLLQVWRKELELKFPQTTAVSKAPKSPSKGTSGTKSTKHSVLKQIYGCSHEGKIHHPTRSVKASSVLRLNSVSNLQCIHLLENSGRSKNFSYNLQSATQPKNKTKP

Cer-NPHP4-YC = molecular target: T3, Cer-NPHP4-YC (UniProt O75161); assay: split reporter; BiFC: Cer-NPHP-YC co-expressed with YN-myc-Nup in NIH 3T3 cells in serum-free medium; fixed 48 hours post-transfection; YFP fluorescence at the base of the primary cilium, cells counted across two independent experiments
T3 sequence: T1 sequence

- binding (NPHP4): binds weakly
- binding (NPHP2 (inversin)): binds
Molecule: Nup205 (from UniProt Q92621 1-2012)

- binding (Cer-NPHP4-YC): no binding
B1: YN-myc-Nup43 (protein, UniProt Q8NFH3 1-380)
chain: MEEIYAKFVSQKISKTRWRPLPPGSLQTAETFATGSWDNEENYISLWSIGDFGNLDSDGGFEGDHQLLCDIRHHGDVMDLQFFDQERIVAASSTGCVTVFLHHPNNQTLSVNQQWTTAHYHTGPGSPSYSSAPCTGVVCNNPEIVTVGEDGRINLFRADHKEAVRTIDNADSSTLHAVTFLRTPEILTVNSIGQLKIWDFRQQGNEPSQILSLTGDRVPLHCVDRHPNQQHVVATGGQDGMLSIWDVRQGTMPVSLLKAHEAEMWEVHFHPSNPEHLFTCSEDGSLWHWDASTDVPEKSSLFHQGGRSSTFLSHSISNQANVHQSVISSWLSTDPAKDRIEITSLLPSRSLSVNTLDVLGPCLVCGTDAEAIYVTRHLFS

From article PMC6760808
